Screen size: about 310,000 compounds; about 2,200 (0.71%) showed an effect of 50% or more. Effects have a minus sign here. The list shows a part of the results.

The target in this assay is human ether-à-go-go-related gene (hERG) potassium channel (human, UniProt Q12809). As to the kind of experiment: primary screen, population patch clamp on CHO cells stably expressing hERG.
Sequence of human ether-à-go-go-related gene (hERG) potassium channel (Q12809 whole entry, looked up): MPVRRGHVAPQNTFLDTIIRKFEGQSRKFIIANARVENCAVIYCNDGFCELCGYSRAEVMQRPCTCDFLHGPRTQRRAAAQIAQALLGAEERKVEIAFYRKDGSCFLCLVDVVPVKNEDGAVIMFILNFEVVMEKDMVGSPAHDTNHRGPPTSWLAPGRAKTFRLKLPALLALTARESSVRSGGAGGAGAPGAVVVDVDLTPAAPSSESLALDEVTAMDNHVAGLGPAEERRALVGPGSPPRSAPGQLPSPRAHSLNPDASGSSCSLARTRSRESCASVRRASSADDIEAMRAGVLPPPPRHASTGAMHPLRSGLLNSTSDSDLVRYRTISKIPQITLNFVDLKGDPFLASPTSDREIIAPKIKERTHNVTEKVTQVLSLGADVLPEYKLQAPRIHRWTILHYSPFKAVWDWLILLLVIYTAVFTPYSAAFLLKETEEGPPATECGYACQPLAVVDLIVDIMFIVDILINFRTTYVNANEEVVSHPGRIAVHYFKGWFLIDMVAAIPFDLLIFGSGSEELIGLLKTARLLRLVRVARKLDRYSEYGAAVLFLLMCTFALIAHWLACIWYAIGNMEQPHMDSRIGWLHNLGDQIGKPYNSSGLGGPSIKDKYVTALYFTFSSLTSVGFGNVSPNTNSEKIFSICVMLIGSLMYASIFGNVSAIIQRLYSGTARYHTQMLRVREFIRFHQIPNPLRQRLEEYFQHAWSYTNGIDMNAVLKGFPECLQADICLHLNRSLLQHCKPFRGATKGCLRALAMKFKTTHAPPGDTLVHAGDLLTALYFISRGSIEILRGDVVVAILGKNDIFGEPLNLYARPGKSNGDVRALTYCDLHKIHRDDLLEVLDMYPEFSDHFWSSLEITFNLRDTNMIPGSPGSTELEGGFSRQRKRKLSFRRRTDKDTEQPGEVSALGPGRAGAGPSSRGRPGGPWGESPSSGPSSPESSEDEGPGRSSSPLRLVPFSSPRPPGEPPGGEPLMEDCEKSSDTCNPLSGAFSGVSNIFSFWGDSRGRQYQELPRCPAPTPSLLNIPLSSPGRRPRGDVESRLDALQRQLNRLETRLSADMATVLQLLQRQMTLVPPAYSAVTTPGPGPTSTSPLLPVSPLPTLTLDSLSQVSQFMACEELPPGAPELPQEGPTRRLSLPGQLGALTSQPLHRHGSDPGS
`O=C(OC1CCOC1=O)c1cccc(S(=O)(=O)Nc2ccc(F)cc2)c1` (stereo not shown): the “hERG current change (%, negative = inhibition) at 1uM” value is given as 11.7%.

Turning to `CCN(CC)S(=O)(=O)c1ccccc1/C=N\O`, the “hERG current change (%, negative = inhibition) at 1uM” value is 2%.

`CCC(C)[C@H](NC(=O)N1CCC(Cc2ccccc2)CC1)C(=O)O` (stereo partly shown): the “hERG current change (%, negative = inhibition) at 1uM” value is 15.1%.

Take `CC(NC(=O)C1CCN(c2nnc(N3CCCC3=O)s2)CC1)c1ccccc1` (stereo not shown): the “hERG current change (%, negative = inhibition) at 1uM” value is listed as 11.8%.

Consider `Cn1c(=O)c2c(nc(NCc3ccc4c(c3)OCO4)n2C)n(C)c1=O`, for which the “hERG current change (%, negative = inhibition) at 1uM” value was -6.61%.

Regarding `Cc1ccc(CNc2ccc(N3CCOCC3)cc2)s1`, the “hERG current change (%, negative = inhibition) at 1uM” value is reported as 2.51%.

On to `CC(C)C(=O)C1=Cc2cc([N+](=O)[O-])ccc2OC1N1CCOCC1` (stereo not shown), for which the “hERG current change (%, negative = inhibition) at 1uM” value stood at 9.39%.

In the case of `Cn1c(SCc2ccc(C#N)cc2)nnc1-c1ccncc1`, the “hERG current change (%, negative = inhibition) at 1uM” value stood at 6.61%.

As to `CCC1CCCCN1C(=O)c1ccc(OC)c(OC2CCN(C(C)C)CC2)c1` (stereo not shown), the “hERG current change (%, negative = inhibition) at 1uM” value came out at 6.4%.

For the compound `COc1ccccc1NC(=O)C1CCCN(S(=O)(=O)c2cnc[nH]2)C1` (stereo not shown), the “hERG current change (%, negative = inhibition) at 1uM” value was 16.6%.

For `O=C(c1cccc(F)c1)N1CCN(C(=O)c2cc3nc(-c4ccco4)cc(C(F)(F)F)n3n2)CC1`, the “hERG current change (%, negative = inhibition) at 1uM” value was -7.98%.

For `CSc1ccc(CNc2ccccn2)cc1`, the “hERG current change (%, negative = inhibition) at 1uM” value is -11.2%.

`CN(CCC#N)C(=O)COC(=O)[C@H](Cc1ccccc1)N1C(=O)c2ccccc2C1=O`: the “hERG current change (%, negative = inhibition) at 1uM” value was 9.69%.

On to `C=CCOc1ccccc1CN1CCC(Oc2ccc(C(=O)N3CCCC3)cc2)CC1`, for which the “hERG current change (%, negative = inhibition) at 1uM” value is recorded as -19.5%.

For the compound `CCCCn1c2nc3ccccc3nc2c2c(=O)n(CCC)cnc21`, the “hERG current change (%, negative = inhibition) at 1uM” value is given as 10.8%.

As to `CCOC(=O)N1CCN(C(=O)c2ccc(NC(=O)CC)cc2)CC1`, the “hERG current change (%, negative = inhibition) at 1uM” value was found to be 7.4%.

Turning to `CCOC(=O)C1(CC2CCCCO2)CCN(S(=O)(=O)c2ccc(C)s2)CC1` (stereo not shown), the “hERG current change (%, negative = inhibition) at 1uM” value is listed as -12.1%.

Turning to `CN(C(=O)CSc1nnc(Nc2ccccc2)s1)C1CCS(=O)(=O)C1` (stereo not shown), the “hERG current change (%, negative = inhibition) at 1uM” value is -5.47%.

With `O=C(N/N=C/c1cccnc1)c1ccccc1OCc1ccc(Br)cc1`, the “hERG current change (%, negative = inhibition) at 1uM” value is -7.4%.

In the case of `O=C(/C=C/c1ccccc1)NC(NC(=S)Nc1ccc(Cl)cc1Cl)C(Cl)(Cl)Cl` (stereo not shown), the “hERG current change (%, negative = inhibition) at 1uM” value amounted to 14.5%.

Turning to `COc1cccc(-c2csc(NC(C)=O)n2)c1`, the “hERG current change (%, negative = inhibition) at 1uM” value is recorded as -1.37%.

As for `CC1CN(c2ccccc2)C(=O)CS1` (stereo not shown), the “hERG current change (%, negative = inhibition) at 1uM” value was 5.94%.

As for `CCOC(=O)c1cccc(NC(=O)CSc2nnc(-c3cccnc3)n2CC)c1`, the “hERG current change (%, negative = inhibition) at 1uM” value was -8.56%.

Turning to `Cc1occc1C(=O)N1CCCC(CO)(Cc2ccc(F)cc2F)C1` (stereo not shown), the “hERG current change (%, negative = inhibition) at 1uM” value is recorded as -0.708%.

As to `CN=C1SC(CC(=O)NCCc2ccc(OC)c(OC)c2)C(=O)N1C` (stereo not shown), the “hERG current change (%, negative = inhibition) at 1uM” value worked out at 9.06%.

Turning to `ONc1cccnc1-n1nc(C(F)(F)F)cc1C(F)(F)F`, the “hERG current change (%, negative = inhibition) at 1uM” value is listed as 11.4%.

`CCN1CCN(C(=O)CN2C(=O)COc3ccc(C)cc32)CC1`: the “hERG current change (%, negative = inhibition) at 1uM” value is on record as 10.6%.

As for `O=C(O)/C=C/C(=O)NNC(=O)c1ccc(Cl)cc1Cl`, the “hERG current change (%, negative = inhibition) at 1uM” value came out at 14.1%.

On to `COc1cccc(CN2CC(C(=O)N(C)C3CCOCC3)CCC2=O)c1` (stereo not shown), for which the “hERG current change (%, negative = inhibition) at 1uM” value is given as 15.7%.

Take `C#Cc1ccc([C@@H]2C=C(C(=O)NCc3ccccc3)O[C@H](OCC)[C@H]2CCCO)cc1`: the “hERG current change (%, negative = inhibition) at 1uM” value was 6.52%.

Turning to `Cc1ccc(CC(=O)NCC(O)c2ccccc2)cc1` (stereo not shown), the “hERG current change (%, negative = inhibition) at 1uM” value was 11%.

For the compound `Cc1nnc(NC(=O)c2ccccc2C(=O)O)s1`, the “hERG current change (%, negative = inhibition) at 1uM” value is recorded as 11.5%.

As to `Cc1cc(Br)ccc1NC(=O)CCS(=O)(=O)c1cccc2nonc12`, the “hERG current change (%, negative = inhibition) at 1uM” value worked out at 17.7%.

Take `O=C(N/N=C/c1ccc([N+](=O)[O-])o1)c1sc2ccccc2c1Cl`: the “hERG current change (%, negative = inhibition) at 1uM” value is reported as -1.26%.

With `Cc1nnc(SCC(=O)Nc2ccc3c(c2)OCO3)[nH]c1=O`, the “hERG current change (%, negative = inhibition) at 1uM” value was 17.4%.

For `O=C1CCCC(c2ccccc2)N1` (stereo not shown), the “hERG current change (%, negative = inhibition) at 1uM” value is reported as -3.28%.

For `Cc1c(C(=O)N2CCOCC2)cc(C(C)(C)C)n1-c1ccccc1`, the “hERG current change (%, negative = inhibition) at 1uM” value turned out to be 6.84%.

Turning to `CC(=O)Nc1ccc(/C=C(\C#N)C(=O)NCc2ccccc2)cc1`, the “hERG current change (%, negative = inhibition) at 1uM” value is 14.3%.

As for `CN(C)CC(CCCCC(CN(C)C)C(=O)c1ccccc1)C(=O)c1ccccc1` (stereo not shown), the “hERG current change (%, negative = inhibition) at 1uM” value was 14.5%.

As to `CCc1ccccc1NC(=O)Cn1nnc(-c2cccs2)n1`, the “hERG current change (%, negative = inhibition) at 1uM” value is 5.81%.

Turning to `O=C(O)C1CSC(c2ccccc2)N1C(=O)c1ccco1` (stereo not shown), the “hERG current change (%, negative = inhibition) at 1uM” value was found to be 10%.

On to `Cc1ccc(CN2CCN(/N=C/c3ccc(C(=O)O)cc3)CC2)cc1`, for which the “hERG current change (%, negative = inhibition) at 1uM” value is listed as 19.3%.

With `CCCc1cc(=O)n2nc(N3CCC(C(=O)N4CCN(c5ccc(OC)cc5)CC4)CC3)sc2n1`, the “hERG current change (%, negative = inhibition) at 1uM” value amounted to 1.95%.

As to `C/C(CC(=O)NCc1ccco1)=N\NC(=O)CC#N`, the “hERG current change (%, negative = inhibition) at 1uM” value is 7.18%.

Consider `CS(=O)(=O)N(CC(=O)NCCSc1ccccn1)c1ccc(F)cc1`, for which the “hERG current change (%, negative = inhibition) at 1uM” value stood at 23.1%.

Take `Cc1ccc(S(=O)(=O)NC(C)(C)C)cc1C(=O)OC(C)C(=O)NC1CC1` (stereo not shown): the “hERG current change (%, negative = inhibition) at 1uM” value is listed as 4.93%.

With `O=C(NCc1ccccc1)c1ccc(CS(=O)(=O)c2ccc(Br)cc2)o1`, the “hERG current change (%, negative = inhibition) at 1uM” value worked out at 15%.

Regarding `O=S(=O)(NCc1cn2ccccc2n1)c1ccccc1F`, the “hERG current change (%, negative = inhibition) at 1uM” value amounted to 4.36%.

As for `O=C(CCc1ccc(S(=O)(=O)NC2CCCCC2)cc1)NCc1cccnc1`, the “hERG current change (%, negative = inhibition) at 1uM” value was 13.9%.

Turning to `O=C(O)CCCNC(=O)/C(=C\C=C\c1ccccc1)NC(=O)c1ccccc1Cl`, the “hERG current change (%, negative = inhibition) at 1uM” value is -2.33%.

In the case of `COC(=O)N(NC(=O)C(O)(c1ccccc1)c1ccccc1)c1ccccc1`, the “hERG current change (%, negative = inhibition) at 1uM” value was found to be 15.5%.

Turning to `CN(C)C(=O)CSc1nnc(-c2ccc(F)cc2)c2ccccc12`, the “hERG current change (%, negative = inhibition) at 1uM” value stood at 9.69%.

In the case of `COc1ccc(OCCn2cc(C=O)c3ccccc32)cc1`, the “hERG current change (%, negative = inhibition) at 1uM” value came out at 10.9%.

As to `COc1ccc(NC(=O)c2cc(C3CC3)on2)c(OC)c1`, the “hERG current change (%, negative = inhibition) at 1uM” value is given as -6.04%.

For `CCNS(=O)(=O)c1cc(-c2nnc(OC)c3ccccc23)ccc1C`, the “hERG current change (%, negative = inhibition) at 1uM” value is recorded as 11.1%.

As for `Cn1c(CN2CCOCC2)nnc1SCC(=O)NCCc1ccccc1`, the “hERG current change (%, negative = inhibition) at 1uM” value came out at 6.24%.

As for `CCn1c(-c2cc(-c3ccc(C)c(C)c3)nc3ccccc23)n[nH]c1=S`, the “hERG current change (%, negative = inhibition) at 1uM” value amounted to 16.2%.

For `CCCc1cc(C(=O)NCc2cccnc2)no1`, the “hERG current change (%, negative = inhibition) at 1uM” value is recorded as 13.6%.

The record behind these values is paper PMC4336329 (PLoS ONE, 2015).
